# Measurements: PubChem BioAssay AID1347165 (National Center for Advancing Translational Sciences (NCATS), 2019)
# Out of some 220,000 compounds screened, about 5,700 (2.6%) were called active. This list was built around the results that the source calls inconclusive (neither active nor inactive); the mix of calls is not that of the screen. Calls follow the shape of the dose curve; as a rule, active = well fitted inhibition curve with a large enough effect; inconclusive = small, poorly fitted or top-dose-only effect; inactive = no such curve, though single readings can be large or run the other way. Potencies beside an inconclusive call are fits to weak or partial responses and may not hold up.
# Biological target: Lysine-specific demethylase 5B (Homo sapiens) (UniProt Q9UGL1)
# Chain of UniProt Q9UGL1 (Q9UGL1 whole entry, looked up): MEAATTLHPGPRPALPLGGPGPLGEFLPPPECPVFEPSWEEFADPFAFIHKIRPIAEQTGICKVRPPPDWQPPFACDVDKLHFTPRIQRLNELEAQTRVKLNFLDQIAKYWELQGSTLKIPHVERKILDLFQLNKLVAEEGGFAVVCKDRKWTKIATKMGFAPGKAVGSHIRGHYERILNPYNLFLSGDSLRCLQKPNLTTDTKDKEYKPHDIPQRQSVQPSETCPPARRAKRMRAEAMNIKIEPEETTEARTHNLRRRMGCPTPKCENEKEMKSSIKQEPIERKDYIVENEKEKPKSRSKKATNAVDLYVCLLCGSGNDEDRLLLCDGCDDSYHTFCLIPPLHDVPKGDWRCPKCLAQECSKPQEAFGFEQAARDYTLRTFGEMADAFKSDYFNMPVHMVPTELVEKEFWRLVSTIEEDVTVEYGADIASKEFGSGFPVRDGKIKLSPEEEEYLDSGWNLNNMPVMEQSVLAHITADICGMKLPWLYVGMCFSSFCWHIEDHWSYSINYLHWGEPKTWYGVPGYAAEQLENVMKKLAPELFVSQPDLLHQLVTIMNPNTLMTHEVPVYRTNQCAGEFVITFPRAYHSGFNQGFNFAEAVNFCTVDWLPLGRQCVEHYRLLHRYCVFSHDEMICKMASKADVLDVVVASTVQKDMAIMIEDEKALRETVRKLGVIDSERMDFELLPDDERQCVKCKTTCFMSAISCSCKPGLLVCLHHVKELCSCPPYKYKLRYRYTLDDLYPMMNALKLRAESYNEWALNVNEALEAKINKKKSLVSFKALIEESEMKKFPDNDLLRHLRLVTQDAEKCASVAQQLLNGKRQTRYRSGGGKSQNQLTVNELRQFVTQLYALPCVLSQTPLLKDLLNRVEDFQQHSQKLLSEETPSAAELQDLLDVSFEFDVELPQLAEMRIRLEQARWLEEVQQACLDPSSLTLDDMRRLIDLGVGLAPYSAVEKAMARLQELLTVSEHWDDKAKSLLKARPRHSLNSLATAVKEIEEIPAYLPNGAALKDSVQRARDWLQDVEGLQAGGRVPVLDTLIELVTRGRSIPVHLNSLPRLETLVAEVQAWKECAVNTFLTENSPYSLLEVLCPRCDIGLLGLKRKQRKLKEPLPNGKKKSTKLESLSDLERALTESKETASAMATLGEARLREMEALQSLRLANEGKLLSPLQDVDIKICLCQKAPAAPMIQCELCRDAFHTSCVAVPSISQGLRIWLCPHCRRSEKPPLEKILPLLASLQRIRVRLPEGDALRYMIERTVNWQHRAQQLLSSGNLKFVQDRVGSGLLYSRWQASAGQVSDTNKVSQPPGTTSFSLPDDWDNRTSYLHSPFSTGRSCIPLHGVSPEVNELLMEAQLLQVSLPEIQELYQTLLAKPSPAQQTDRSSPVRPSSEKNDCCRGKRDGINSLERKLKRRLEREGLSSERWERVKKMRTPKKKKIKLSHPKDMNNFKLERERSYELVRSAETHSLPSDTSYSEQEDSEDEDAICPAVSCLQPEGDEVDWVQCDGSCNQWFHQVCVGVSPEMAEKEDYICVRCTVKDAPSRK
# Experiment: Primary screen for KDM5B Histone Demethylases FDH-coupled qHTS; also: nearly all actives have a fitted effect of over 70% in size; as to activity change, negative = inhibition: 0% is about no effect
# Details: FDH-coupled NADH fluorescence (FDH is formaldehyde dehydrogenase); activity change, negative = inhibition: at 57.7 µM (top of the series) unless noted
# Method in brief: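 qHTS format, multiple compound concentrations. Buffer 50 mM HEPES pH 7.5/0.01% Tween-20; 200 nM KDM5BΔAP final; 10 min compound preincubation; substrate-mix levels 12.5 µM peptide, 25 µM α-KG, 0.25 mM NAD⁺; 30 min RT; ΔRFU.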
# Potency is read from the fitted curve at half-maximal effect; tags tell the direction and shape of the fitted curve.
SMILES,"activity change, negative = inhibition",Potency
COCCOc1ccc(C(=O)N[C@@H]2CN(C(=O)Nc3ccc(F)cc3)CCC[C@H]2O)cc1,inactive: 7.42%,–
CCOc1ccc(NC(=O)C(CC)CC)c2cccnc12,inactive: 6.14%,–
Cc1ncsc1C(=O)N(Cc1cccs1)C1CC1,inactive: -15.8%,–
COc1ccc(C(=O)N2CCN(c3oc(-c4ccccc4OC)nc3C#N)CC2)cc1,–,"inconclusive: 1.78 µM [inhibitor, partial curve, poor fit]"
O=C(c1nc(-c2cc(Cl)cc(Cl)c2)c2ccccn12)N1CCOCC1,–,active: 28.2 µM
CNC(=O)CCn1ncc2cc(OCc3ccccc3-c3ccc(F)cc3C)ccc21,–,"inconclusive: 50.1 µM [inhibitor, partial curve, poor fit]"
Cc1nn(-c2ccc(F)cc2)c(-n2cccc2)c1C(=O)N1CCc2ccccc2C1,inactive: 6.1%,–
CC1=C(Cc2cc3ccc(=O)oc3cc2O)CC(C)(C)CC1,–,"inconclusive: 28.2 µM [inhibitor, partial curve, poor fit]"
O=S(=O)(NCc1ccc(F)cc1)c1ccc(-c2cnc(C3CC3)o2)cc1,–,"inconclusive: 25.1 µM [inhibitor, partial curve, poor fit]"
CN(C)S(=O)(=O)c1ccc(=O)n(Cc2ncc(-c3ccc(Cl)cc3)o2)c1,inactive: 1.1%,–
COc1ccc(CCNC(=O)c2ccc3c(c2)c(C)c(C)n3Cc2ccc(F)cc2)c(OC)c1OC,–,"inconclusive: 17.8 µM [inhibitor, partial curve, poor fit]"
Cc1ccc2nc(-c3ccccc3F)c(Nc3ccc(Cl)cc3)n2c1,–,"inconclusive: 31.6 µM [inhibitor, partial curve, poor fit]"
COc1ccc(-c2nc(CSCC(=O)N3CCN(c4cccc(C)c4C)CC3)c(C)o2)cc1OC,–,"inconclusive: 31.6 µM [inhibitor, single point]"
COc1ccc2c(C)c(-c3nc(C4CCOC4)no3)oc2c1 (centres undefined),–,active: 31.6 µM
COc1ccc(NC(=O)c2cc3c(s2)CN(C2CCCC2)C3)c(OC)c1,–,"inconclusive: 31.6 µM [inhibitor, single point]"
O=C1c2c(nc(CNCc3ccccc3)n2Cc2ccccc2)NCCN1CCOc1ccccc1,–,"inconclusive: 39.8 µM [inhibitor, single point]"
O=C(NCC(=O)N1CCCC1c1ccccc1)c1ccc(Cl)cc1 (centres undefined),inactive: 17.1%,–
N#Cc1ccc(OCc2cccc(C(F)(F)F)c2)cc1,inactive: 4.2%,–
COC(=O)CNC(=O)Cn1ccc2ccc(OCc3ccccc3)cc21,inactive: -14%,–
COc1cccc(C(N)=O)c1OCc1ccc(C)cc1,inactive: 14%,–
CCCn1c(=O)sc2cc(NC(=O)COc3ccc(Cl)cc3)ccc21,–,"inconclusive: 10 µM [inhibitor, partial curve, poor fit]"
CN(Cc1ccc(-c2ccccc2)cc1)Cc1ccccn1,–,"inconclusive: 14.1 µM [inhibitor, partial curve]"
CN1CC2(CCCN(Cc3cc4ccccc4o3)C2)OC1=O (centres undefined),inactive: 21.8%,–
CC12CN3CCN(CC(C3)/C1=N\NC(=O)c1ccccc1N)C2,–,"inconclusive: 25.1 µM [inhibitor, single point]"
CN1CC(=O)N(C2CCCNCC2)Cc2c(NC3CCCC3)ncnc21 (centres undefined),–,"inconclusive: 44.7 µM [inhibitor, partial curve, poor fit]"

SMILES,"activity change, negative = inhibition",Potency
CCCCNC(=O)c1nn(-c2ccc(CC)cc2)nc1CO,–,"inconclusive: 2.24 µM [inhibitor, full curve, poor fit]"
COc1ccc2[nH]cc(CCNC(=O)c3cc(F)ccc3F)c2c1,inactive: 5.03%,–
COc1ccc(CN(C)C(=O)Cn2nnnc2CN2CCOCC2)c2cccnc12,–,active: 22.4 µM
Cn1nc(C(=O)NC2CCCCC2)c(Cl)c1C(F)(F)F,inactive: -7.87%,–
Cc1cccc(CN2CCc3c(n(Cc4cccnc4)n(CCc4ccccc4)c3=O)C2)n1,–,"inconclusive: 35.5 µM [inhibitor, partial curve, poor fit]"
CC(=O)Nc1ccc(-c2cc(C(=O)O)c3c(-c4ccccc4)[nH]nc3n2)cc1,–,"inconclusive: 31.6 µM [inhibitor, partial curve, poor fit]"
COc1cccc2c1cc1c(=O)n(CC(=O)N3CCN(c4cccc(C)c4)C(C)C3)nc(C)n12 (centres undefined),–,"inconclusive: 28.2 µM [inhibitor, partial curve, poor fit]"
Cc1ccc(-c2cc(C(=O)O)c3ccc(C)c(C)c3n2)cc1,–,"inconclusive: 22.4 µM [inhibitor, partial curve, poor fit]"
O=C(c1n[nH]c2c1CCCC2)N1CCc2c(nc3cc(-c4ccccc4)[nH]n3c2=O)C1,–,active: 15.8 µM
O=c1cc(-c2ccncc2)oc2c(-c3ccccc3F)nccc12,–,"inconclusive: 25.1 µM [inhibitor, single point]"
CN1CCN(c2cc(=O)c3ccnc(-c4ccc(F)cc4)c3o2)CC1,–,active: 28.2 µM
Cc1noc(C)c1S(=O)(=O)N1CCc2n[nH]c(=O)n2CC1,inactive: 50.9%,–
COc1ccc(NC(=O)c2sc3nc[nH]c(=O)c3c2C)cc1Cl,–,"inconclusive: 35.5 µM [inhibitor, single point]"
COc1ccccc1N1CCN(c2cc(C)nc3nc(-c4ccc(C)cc4)nn23)CC1,inactive: 5.06%,–
CCOc1cccc(-c2nc(C(=O)NCc3ccccc3)cs2)c1,–,"inconclusive: 22.4 µM [inhibitor, partial curve, poor fit]"
COC[C@@H]1CN(S(=O)(=O)c2cnc[nH]2)C[C@H]1c1ccccn1,inactive: 23.8%,–
O=C(NCc1ccc(F)cc1)c1nc(-c2ccccc2)c2cnccn12,–,active: 79.4 µM
Cc1cc(F)ccc1-c1[nH]nc2ncc(-c3ccsc3)nc12,–,"inconclusive: 22.4 µM [inhibitor, partial curve, poor fit]"
Cc1cc(C)n(C(=O)c2cn(C)nc2S(=O)(=O)N2CCN(c3cccc(F)c3)CC2)n1,inactive: 7.75%,–
COc1ccc(CN2CCCC3(CC(C(C)C)=NO3)C2)cc1 (centres undefined),inactive: 3.71% [at 149 µM],–
O=C(NC1CCc2nn(CC3CC3)c(=O)n2CC1)c1ccc[nH]c1=O (centres undefined),–,active: 28.2 µM
Cc1ccc(COc2ccc(CNC(C)C)cc2)cc1,inactive: 4.96%,–
COc1ccc(CNC(=O)c2ccc3oc(C(C)C)nc3c2)cc1,inactive: 3.12%,–
Cc1cccc(CCNC(=O)CCc2c(C)nc3c4c(C)cc(C)nc4nn3c2C)c1,–,"inconclusive: 17.8 µM [inhibitor, partial curve, poor fit]"
O=c1oc2ccccc2c(N2CCCC2)c1NS(=O)(=O)c1ccc(Cl)s1,inactive: 5.5%,–

SMILES,"activity change, negative = inhibition",Potency
Cc1ccccc1-c1[nH]nc2ncc(-c3ccc(F)cc3)nc12,–,"inconclusive: 35.5 µM [inhibitor, partial curve, poor fit]"
CC(=O)c1ccc(NC(=O)c2ccc(-c3ccc(Cl)cc3)o2)cc1,–,"inconclusive: 28.2 µM [inhibitor, partial curve, poor fit]"
COC(=O)CNC(=O)c1nc(C(C)(C)C)c2cnccn12,–,active: 112 µM
O=C1CSC2(C(=O)Nc3ccccc32)N1c1cc(Cl)cc(Cl)c1 (centres undefined),inactive: 9.38%,–
CCCCCN1CCCCC12Cc1ccccc1CNC2=O (centres undefined),inactive: 14.3% [at 149 µM],–
CCCNC(=O)c1ccccc1-c1ncc(-c2ccccc2)o1,–,"inconclusive: 20 µM [inhibitor, partial curve, poor fit]"
CC1(c2ccccc2)N(Cc2cccnc2)C(=O)OC12CCN(C(=O)c1ccccc1)CC2 (centres undefined),–,"inconclusive: 56.2 µM [inhibitor, partial curve, poor fit]"
CCc1ccc(/C=C(/CC(=O)O)c2nc3ccccc3s2)cc1,–,"inconclusive: 39.8 µM [inhibitor, single point]"
Cc1nnc(NC(=O)c2ccc3c(ccn3C)c2)s1,inactive: 4.15%,–
CCCCCCCNC(=O)CCC(=O)NCCCC,inactive: -7.63%,–
O=c1c2c(CO)c(-c3ccc(F)cc3)nn2ccn1Cc1cc(=O)n2ccccc2n1,–,"inconclusive: 25.1 µM [inhibitor, single point]"
CCCCS(=O)(=O)N[C@@H]1CN(c2ncccn2)C[C@H]1CN(C)C,–,active: 31.6 µM
O=c1c2c(CO)c(-c3ccc(F)cc3)nn2ccn1Cc1cccc(C(F)(F)F)c1,inactive: -15.4%,–
CCCSc1oc(-c2ccccc2)nc1S(=O)(=O)c1ccccc1,–,"inconclusive: 35.5 µM [inhibitor, single point]"
COc1ccc(CNC(=O)CSc2nc(-c3ccc(OC)c(OC)c3)cc(C(F)(F)F)n2)cc1,–,"inconclusive: 3.55 µM [inhibitor, partial curve, poor fit]"
Cc1cnccc1CNC(=O)CC(c1cccc(O)c1)c1cccc(Cl)c1 (centres undefined),–,"inconclusive: 17.8 µM [inhibitor, partial curve, poor fit]"
CC(C)CN(C(=O)CSc1ccc2ccccc2n1)C1CCS(=O)(=O)C1 (centres undefined),inactive: 5.96%,–
COc1ccc(Nc2cc(C)c3ccccc3n2)cc1,–,"inconclusive: 15.8 µM [inhibitor, partial curve, poor fit]"
CCC1(N2CCN(C(=O)c3sccc3C)CC2)CCN(S(C)(=O)=O)C1 (centres undefined),inactive: -0.771%,–
Cc1nc2ccc(Cl)cc2cc1C(=O)NC(C)c1ccccc1 (centres undefined),inactive: -8.53%,–
CCCN(CCC)C(=O)Cc1c(C)[nH]c2ccc(C)cc12,inactive: -2.66%,–
O=S(=O)(c1ccc2nc(NCc3ccccc3Cl)ccc2c1)N1CCCCC1,–,"inconclusive: 31.6 µM [inhibitor, partial curve, poor fit]"
COc1ccc(-c2cnc3n2CC(C(=O)NCCCN2CCCC2=O)CC3)cc1 (centres undefined),–,"inconclusive: 17.8 µM [inhibitor, partial curve, poor fit]"
COc1ccc(CN2C(=O)[C@@H]3C[C@@H](O)CN3C3(CN(Cc4ccncc4)C3)C2=O)cc1,–,"inconclusive: 25.1 µM [inhibitor, single point]"
